Assay results from a compilation of properties of binary mixtures (doi:10.1039/c6ra15476j).
Some of these densities may be calculated back from excess volumes.

Assay: xn = mol fraction of the nth substance listed
Settings: 100 kPa

Structure (SMILES): CC(=O)c1ccccc1 + CCOS(=O)(=O)[O-].CC[n+]1ccn(C)c1
- mass density (293.15 K, x1 = 0.0505): 1227.8 kg/m3
- mass density (293.15 K, x1 = 0.0997): 1219 kg/m3
- mass density (293.15 K, x1 = 0.2): 1210.1 kg/m3
- mass density (293.15 K, x1 = 0.3008): 1201.6 kg/m3
- mass density (293.15 K, x1 = 0.4002): 1188.6 kg/m3
- mass density (293.15 K, x1 = 0.5006): 1169.9 kg/m3
- mass density (293.15 K, x1 = 0.5999): 1148 kg/m3
- mass density (293.15 K, x1 = 0.6921): 1124 kg/m3
- mass density (293.15 K, x1 = 0.8999): 1062.3 kg/m3
- mass density (293.15 K, x1 = 0.9502): 1045.4 kg/m3
- mass density (293.15 K, x1 = 1): 1027.9 kg/m3
- mass density (303.15 K, x1 = 0.0505): 1219.1 kg/m3
- mass density (303.15 K, x1 = 0.0997): 1210.3 kg/m3
- mass density (303.15 K, x1 = 0.3008): 1192.7 kg/m3
- mass density (303.15 K, x1 = 0.5006): 1161.2 kg/m3
- mass density (303.15 K, x1 = 0.5999): 1139.3 kg/m3
- mass density (303.15 K, x1 = 0.6921): 1115.3 kg/m3
- mass density (303.15 K, x1 = 0.8999): 1053.6 kg/m3
- mass density (313.15 K, x1 = 0.0505): 1210.3 kg/m3
- mass density (313.15 K, x1 = 0.0997): 1201.6 kg/m3
- mass density (313.15 K, x1 = 0.2): 1192.6 kg/m3
- mass density (313.15 K, x1 = 0.3008): 1184.1 kg/m3
- mass density (313.15 K, x1 = 0.4002): 1171.1 kg/m3
- mass density (313.15 K, x1 = 0.5006): 1152.5 kg/m3
- mass density (313.15 K, x1 = 0.5999): 1130.5 kg/m3
- mass density (313.15 K, x1 = 0.7973): 1076.1 kg/m3
- mass density (323.15 K, x1 = 0.0505): 1201.6 kg/m3
- mass density (323.15 K, x1 = 0.0997): 1192.8 kg/m3
- mass density (323.15 K, x1 = 0.2): 1183.9 kg/m3
- mass density (323.15 K, x1 = 0.4002): 1162.4 kg/m3
- mass density (323.15 K, x1 = 0.5006): 1143.7 kg/m3
- mass density (323.15 K, x1 = 0.6921): 1097.8 kg/m3
- mass density (323.15 K, x1 = 0.7973): 1067.3 kg/m3
- mass density (323.15 K, x1 = 0.9502): 1019.2 kg/m3
- mass density (333.15 K, x1 = 0.2): 1175 kg/m3
- mass density (333.15 K, x1 = 0.3008): 1166.5 kg/m3
- mass density (333.15 K, x1 = 0.4002): 1153.5 kg/m3
- mass density (333.15 K, x1 = 0.5006): 1134.8 kg/m3
- mass density (333.15 K, x1 = 0.5999): 1112.9 kg/m3
- mass density (333.15 K, x1 = 0.6921): 1088.9 kg/m3
- mass density (333.15 K, x1 = 0.7973): 1058.5 kg/m3
- mass density (333.15 K, x1 = 0.8999): 1027.3 kg/m3
- mass density (333.15 K, x1 = 0.9502): 1010.3 kg/m3
- mass density (333.15 K, x1 = 1): 992.8 kg/m3

Structure (SMILES): CC(=O)c1ccccc1 + CC[n+]1ccn(C)c1.F[B-](F)(F)F
- mass density (293.15 K, x1 = 0.0416): 1261.6 kg/m3
- mass density (293.15 K, x1 = 0.094): 1240.7 kg/m3
- mass density (293.15 K, x1 = 0.195): 1211.9 kg/m3
- mass density (293.15 K, x1 = 0.4989): 1157.2 kg/m3
- mass density (293.15 K, x1 = 0.5979): 1139.8 kg/m3
- mass density (293.15 K, x1 = 0.7005): 1120 kg/m3
- mass density (293.15 K, x1 = 0.8007): 1096 kg/m3
- mass density (293.15 K, x1 = 0.8918): 1068 kg/m3
- mass density (293.15 K, x1 = 0.9498): 1047.7 kg/m3
- mass density (293.15 K, x1 = 1): 1027.9 kg/m3
- mass density (303.15 K, x1 = 0.0416): 1249.1 kg/m3
- mass density (303.15 K, x1 = 0.195): 1199.5 kg/m3
- mass density (303.15 K, x1 = 0.2999): 1177.6 kg/m3
- mass density (303.15 K, x1 = 0.4003): 1159 kg/m3
- mass density (303.15 K, x1 = 0.5979): 1127.3 kg/m3
- mass density (303.15 K, x1 = 0.7005): 1107.6 kg/m3
- mass density (303.15 K, x1 = 0.8007): 1087.3 kg/m3
- mass density (303.15 K, x1 = 0.8918): 1059.2 kg/m3
- mass density (303.15 K, x1 = 0.9498): 1039 kg/m3
- mass density (303.15 K, x1 = 1): 1019.2 kg/m3
- mass density (313.15 K, x1 = 0.0416): 1240.4 kg/m3
- mass density (313.15 K, x1 = 0.094): 1219.5 kg/m3
- mass density (313.15 K, x1 = 0.195): 1190.7 kg/m3
- mass density (313.15 K, x1 = 0.2999): 1168.9 kg/m3
- mass density (313.15 K, x1 = 0.4003): 1150.2 kg/m3
- mass density (313.15 K, x1 = 0.4989): 1136 kg/m3
- mass density (313.15 K, x1 = 0.5979): 1118.5 kg/m3
- mass density (313.15 K, x1 = 0.7005): 1098.8 kg/m3
- mass density (313.15 K, x1 = 0.8007): 1078.5 kg/m3
- mass density (313.15 K, x1 = 1): 1010.4 kg/m3
- mass density (323.15 K, x1 = 0.0416): 1231.6 kg/m3
- mass density (323.15 K, x1 = 0.195): 1182 kg/m3
- mass density (323.15 K, x1 = 0.2999): 1160.1 kg/m3
- mass density (323.15 K, x1 = 0.5979): 1109.8 kg/m3
- mass density (323.15 K, x1 = 0.7005): 1090.1 kg/m3
- mass density (323.15 K, x1 = 0.8007): 1069.8 kg/m3
- mass density (323.15 K, x1 = 0.8918): 1041.7 kg/m3
- mass density (323.15 K, x1 = 0.9498): 1021.5 kg/m3
- mass density (323.15 K, x1 = 1): 1001.7 kg/m3
- mass density (333.15 K, x1 = 0.195): 1170.5 kg/m3
- mass density (333.15 K, x1 = 0.2999): 1151.2 kg/m3
- mass density (333.15 K, x1 = 0.4989): 1118.4 kg/m3
- mass density (333.15 K, x1 = 0.5979): 1100.9 kg/m3
- mass density (333.15 K, x1 = 0.7005): 1081.2 kg/m3
- mass density (333.15 K, x1 = 0.8007): 1060.9 kg/m3
